Experiment [1] concerns the target T1, IKs channel (KCNQ1 and KCNE1) (Homo sapiens, UniProt P51787). Put plainly: C29 inhibition of channel current induced by +60 mV pulse. Format: cell-based. The settings on record: 100 μM C29, +60 mV pulse.
Experiment [2] addresses KCNQ1+KCNE1 (IKs) WT (Homo sapiens, UniProt P51787). Put plainly: IKs currents in inside-out membrane patches from Xenopus oocytes at various intracellular ATP/nucleotide concentrations. The settings on record: for ability of nucleotide to prevent IKs current run-down: 1.5 mM nucleotide in intracellular solution, inside-out patch.
The target in experiment [3] is KCNQ2/3 (M-channels) (Homo sapiens, UniProt O43525+O43526). Put plainly: C28 on M-channels (KCNQ2/3): current and G-V relation. Format: cell-based.
The target in experiment [4] is T2, KCNQ1 (Homo sapiens, UniProt P51787). Put plainly: C28 on KCNQ1 channels: current and G-V relation. In kind it is cell-based.
The target of experiment [5] is T1, IKs channel (KCNQ1 and KCNE1). Put plainly: C28 on IKs channels: current and G-V relation. Format: cell-based.
The test system of experiment [6] is guinea pig ventricular myocytes (IKs). Put plainly: Action potentials and IKs in guinea pig ventricular myocytes at different internal ATP, with and without chromanol 293b. In kind it is cell-based.
Experiment [7] concerns the target psWT/L353K Kv7.1 (Homo sapiens, UniProt P51787, C214A/C331A/G219C/L353K). Put plainly: Constitutive currents of locked-open psWT/L353K Kv7.1 channels. In kind it is cell-based.
For experiment [8], the system named is Kv7.1 E1R double mutants. Put plainly: Rescued currents of E1R/S4 double mutant Kv7.1 channels. In kind it is cell-based.
The target of experiment [9] is Q357R IKs (Q357R KCNQ1 co-expressed with KCNE1) (Homo sapiens, UniProt P51787, Q357R). Put plainly: ATP dependence of Q357R IKs in inside-out patches. Format: cell-based.
For experiment [10], the system named is KCNQ2/KCNQ3. Put plainly: Current after inside-out patch excision without intracellular ATP, KCNQ2/KCNQ3. In kind it is cell-based. The settings on record: co-expression of KCNQ2 and KCNQ3.
The target of experiment [11] is T2, KCNQ1. Put plainly: C4 on KCNQ1 channel currents, step from -80 to +40 mV. In kind it is cell-based.

“And” between values parts separate entries of the source, which are not always exact repeats. Identical values can stand only once.

Turning to `Cc1ccc(Oc2ccc(N3C(=O)c4ccc(C(=O)O)cc4C3=O)cc2)cc1C` [C29, 2-[4-(3,4-Dimethylphenoxy)phenyl]-1,3-dioxoisoindoline-5-carboxylic acid], the “inhibition of channel current, IKs versus KCNQ1 alone” value in experiment [1] is reported as “inhibits IKs channel current more effectively than KCNQ1 alone”.
For `Nc1nc2c(ncn2[C@@H]2O[C@H](COP(=O)(O)OP(=O)(O)OP(=O)(O)O)[C@@H](O)[C@H]2O)c(=O)[nH]1` [GTP], in experiment [2], the “ability of nucleotide to prevent IKs current run-down” value (shortened to “ability of nucleotide”) is listed as “sustained channel function”.
As for `O=C1c2ccccc2C(=O)c2c(Nc3cccc(S(=O)(=O)O)c3)c(Nc3ccc(S(=O)(=O)O)cc3)cc(O)c21` [C28, disodium;3-[[4-hydroxy-9,10-dioxo-2-(4-sulfonatoanilino)anthracen-1-yl]amino]benzenesulfonate], the “Hill coefficient of the change in V1/2” value in experiment [3] (KCNQ2/3) worked out at 0.92±0.06. The EC50 was found to be 4.4 ± 0.3 µM in experiment [3] (KCNQ2/3, read-out: EC50 of the change in V1/2 (V1/2 control−V1/2C28)); 15.8 ± 8.5 µM in [4] (KCNQ1, read-out: EC50 of the change in V1/2 (V1/2 control−V1/2C28)); 12.7 ± 11.4 µM in experiment [5] (IKs channels, read-out: EC50 of the change in V1/2 (V1/2 control−V1/2C28)). Further, in experiment [3] (M-currents measured at +40 mV), the “effect on channel current” value was “increases channel current”. Further, in experiment [3] (in the presence of C28), the “V1/2 of G-V relation” value was −45.9±0.4 mV. Also, the entries for the “slope of G-V relation” value in experiment [3] (in the presence of C28), in [4] (10 μM C28) and in experiment [5] (10 μM C28) were 8.21±0.37 mV, 14.8±1.2 mV and 18.9±1.1 mV, respectively. In addition, the “V1/2 of G-V relation (Boltzmann fit)” value in [4] (10 μM C28) is −86.3±1.2 mV; in experiment [5] (10 μM C28) it was −32.2±1.0 mV. Also, the “effect on current amplitudes” value in [4] (KCNQ1) and in [5] (IKs) was “increases current amplitudes” in each case. In addition, in [5] (dose response), the “direction of G-V shift” value is “shifts IKs in the negative direction in a dose dependent manner”.
`CCS(=O)(=O)N(C)[C@H]1c2cc(C#N)ccc2OC(C)(C)[C@@H]1O` (racemic) [chromanol 293B]: the “effect of chromanol 293b on action potential” value in experiment [6] (10 mM vs 3 mM internal ATP) is “greater effect”. Besides, in experiment [7], the “effect on psWT/L353K constitutive currents” value is “reduced”. Moreover, the “effect on rescued constitutively open channel currents” value in experiment [8] is given as “blocked”.
Take `Nc1ncnc2c1ncn2[C@@H]1O[C@H](COP(=O)(O)OP(=O)(O)O)[C@@H](O)[C@H]1O` [ADP]: in [2], the “ability of nucleotide” value was “rundown of IKs currents became progressively faster”.
For the molecule “phosphatidylinositol 4,5-bisphosphate [PIP2]”, the “saturation of IKs channel activation” value in experiment [2] (5 μM PIP2) was 50%; in [2] (100 μM PIP2), 100%.
As to `Nc1ncnc2c1ncn2C1OC(COP(=O)(O)OP(=O)(O)NP(=O)(O)O)C(O)C1O` (stereo not drawn) [AMP-PNP, 5′-adenylyl-β-γ-imidodiphosphate], the “ability of nucleotide” value in [2] was “sustained channel function”.
As for `Nc1ncnc2c1ncn2[C@@H]1O[C@H](COP(=O)(O)OP(=O)(O)OP(=O)(O)O)[C@@H](O)[C@H]1O` [ATP, adenosine-5′-triphosphate], the EC50 is 9600 µM in experiment [9]; 1700 µM and 1660 µM in experiment [2] (EC50 of ATP dose response (steady state current amplitude), WT IKs, inside-out patches, Hill equation fit). The “Hill coefficient of ATP dose response” value in experiment [9] (Q357R IKs) is given as 1.1; in experiment [2] (WT IKs) it was 1. For the same molecule, the “V1/2 of G-V relation (Boltzmann fit)” value in experiment [9] (Q357R IKs, 0.5 mM ATP) is 53.2±2.5 mV; in experiment [9] (Q357R IKs, 5 mM ATP), 28.8±2.6 mV; in [2] (WT IKs, 0.5 mM ATP), 25.2±2.5 mV; in [2] (WT IKs, 20 mM ATP) it was 23.6±3.6 mV. The “slope factor of G-V relation” value in [9] (Q357R IKs, 0.5 mM ATP) stood at 27.3±1.3; in experiment [9] (Q357R IKs, 5 mM ATP), 26.4±2.1; in [2] (WT IKs, 0.5 mM ATP), 25.6±1.4; in [2] (WT IKs, 20 mM ATP), 27.8±2.2. Besides, the “increase of current amplitude” value in experiment [9] (Q357R IKs, high concentration of ATP, inside-out patch) is 3- to 5 fold. Also, the “ATP requirement for channel function” value in [10] is given as “do not require ATP for function”. In addition, the “effect on ventricular action potential duration” value in [6] (10 mM vs 3 mM ATP in patch pipette solution) is “shortens the ventricular action potential duration”. Also, the “ability of nucleotide” value in experiment [2] is “sustained channel function”.
As to `O=[N+]([O-])c1ccc(Nc2ccc(Nc3ccccc3)c(S(=O)(=O)[O-])c2)c([N+](=O)[O-])c1.[Na+]` [C4, sodium; 2-anilino-5-(2,4-dinitroanilino)benzenesulfonate], the “effect on KCNQ1 channel activity” value in experiment [11] is on record as “modulates KCNQ1 channel activity”.

The values above are taken from patent publication US10064842B2, “KCNQ channels as therapeutic targets” (Washington University, priority 2013, dated 2018).
